Reference: the supplement of paper PMC4967469
pIC50: −log10 of the molar value. The IC50 comes from the fitted curve, where viability falls to half of the control; where the fit passes the top or lowest dose, that dose stands as a limit. AUC, from the same fit, is the share of area under the viability curve across the 256-fold dose range; it is 1 without any effect and falls as sensitivity rises. For some of these results: A top dose marked as inferred was calculated from the reported fits. For some of these results: Drugs with an entry number were screened twice under separate entries, and the two screens often disagree.

Experiments:
Test in all cases: Viability of human cancer cell lines after 72 h of drug (GDSC screen)
OSI-930 = compound: O=C(Nc1ccc(OC(F)(F)F)cc1)c1sccc1NCc1ccnc2ccccc12 [OSI-930]; conditions: top dose 10.24 µM
Method: (§1)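 Human cancer cell lines in 384-well plates, medium with 10% serum, drug for 72 h over a 256-fold dose range (nine 2-fold or five 4-fold steps up to the top dose). Adherent lines were fixed and stained with the nucleic acid dye Syto60, suspension lines read with resazurin; signal relative to control wells, capped at 0 and 100%. One two-parameter sigmoid per drug and line, fitted in a mixed model over all curves with the slope shared within a line.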

VNLG/124 = compound: CCCC(=O)OCc1ccc(OC(=O)/C=C(C)/C=C/C=C(C)/C=C/C2=C(C)CCCC2(C)C)cc1 [VNLG/124]; conditions: top dose 5.12 µM; top dose inferred
Method: as §1

Masitinib = compound: Cc1ccc(NC(=O)c2ccc(CN3CCN(C)CC3)cc2)cc1Nc1nc(-c2cccnc2)cs1 [Masitinib]; conditions: top dose 20 µM
Method: as §1

Bleomycin = compound: Cc1c(N)nc([C@H](CC(N)=O)NC[C@H](N)C(N)=O)nc1C(=O)N[C@H](C(=O)N[C@H](C)[C@@H](O)[C@H](C)C(=O)N[C@H](C(=O)NCCc1nc(-c2nc(C(=O)NCCC[S+](C)C)cs2)cs1)[C@@H](C)O)[C@@H](OC1OC(CO)C(O)C(O)C1OC1OC(CO)C(O)C(OC(N)=O)C1O)c1cnc[nH]1 [Bleomycin]
Method: as §1

Tamoxifen = compound: CC/C(=C(\c1ccccc1)c1ccc(OCCN(C)C)cc1)c1ccccc1 [Tamoxifen]; conditions: top dose 5 µM
Method: as §1

BX-912 = compound: O=C(Nc1cccc(Nc2ncc(Br)c(NCCc3cnc[nH]3)n2)c1)N1CCCC1 [BX-912]; conditions: top dose 10.24 µM; top dose inferred
Method: as §1

NSC-87877 = compound: O=S(=O)(O)c1ccc2cc(N=Nc3cc(S(=O)(=O)O)c4cccnc4c3O)ccc2c1 [NSC-87877]; conditions: top dose 16 µM; top dose inferred
Method: as §1

LAQ824 = compound: O=C(/C=C/c1ccc(CN(CCO)CCc2c[nH]c3ccccc23)cc1)NO [LAQ824]; conditions: top dose 1.024 µM; top dose inferred
Method: as §1

Elesclomol = compound: CN(NC(=O)CC(=O)NN(C)C(=S)c1ccccc1)C(=S)c1ccccc1 [Elesclomol]; conditions: top dose 0.2 µM; top dose inferred
Method: as §1

[1] = top dose 50 µM, screen: GDSC drug entry 1378, top dose inferred
[2] = top dose 64 µM, screen: GDSC drug entry 190

Row | Cell Line | AUC (OSI-930) | pIC50 (OSI-930) | AUC (VNLG/124) | pIC50 (VNLG/124) | AUC (Masitinib) | pIC50 (Masitinib) | AUC (Bleomycin; [1]) | pIC50 (Bleomycin; [1]) | AUC (Bleomycin; [2]) | pIC50 (Bleomycin; [2]) | AUC (Tamoxifen) | pIC50 (Tamoxifen) | AUC (BX-912) | pIC50 (BX-912) | AUC (NSC-87877) | pIC50 (NSC-87877) | AUC (LAQ824) | pIC50 (LAQ824) | AUC (Elesclomol) | pIC50 (Elesclomol)
1 | BB49-HNC (head and neck, adherent) | 0.969 | < 4.99 | 0.976 | < 5.29 | 0.975 | < 4.70 | 0.462 | 5.63 | 0.757 | 4.51 | 0.859 | < 5.30 | 0.948 | < 4.99 | 0.977 | < 4.80 | 0.687 | 6.58 | 0.825 | 6.72
2 | BC-1 (B-cell lymphoma, suspension) | 0.915 | < 4.99 | 0.988 | < 5.29 | 0.96 | < 4.70 | 0.689 | 5.02 | 0.406 | 5.64 | 0.961 | < 5.30 | 0.567 | 6.02 | 0.991 | < 4.80 | 0.315 | 7.67 | 0.82 | 7.03
3 | BE2-M17 (neuroblastoma, adherent) | 0.951 | < 4.99 | 0.982 | < 5.29 | 0.919 | < 4.70 | 0.909 | < 4.30 | 0.918 | < 4.19 | 0.975 | < 5.30 | 0.903 | < 4.99 | 0.982 | < 4.80 | 0.463 | 7.30 | 0.736 | 7.22
4 | BFTC-905 (bladder, adherent) | 0.925 | < 4.99 | 0.983 | < 5.29 | 0.946 | < 4.70 | – | – | 0.43 | 5.58 | 0.99 | < 5.30 | 0.826 | 5.30 | 0.987 | < 4.80 | 0.396 | 7.46 | 0.602 | 7.64
5 | BICR22 (head and neck, adherent) | 0.983 | < 4.99 | 0.977 | < 5.29 | 0.983 | < 4.70 | 0.128 | > 6.71 | 0.233 | 6.23 | 0.952 | < 5.30 | 0.964 | < 4.99 | 0.983 | < 4.80 | 0.728 | 6.50 | 0.42 | 8.14
6 | BICR78 (head and neck, adherent) | 0.979 | < 4.99 | 0.975 | < 5.29 | 0.964 | < 4.70 | 0.521 | 5.44 | 0.74 | 4.66 | 0.943 | < 5.30 | 0.96 | < 4.99 | 0.982 | < 4.80 | 0.524 | 7.12 | 0.429 | 8.11
7 | BV-173 (chronic myeloid leukaemia, suspension) | 0.773 | 5.45 | 0.989 | < 5.29 | 0.284 | 6.47 | 0.324 | 5.97 | 0.897 | 4.20 | 0.961 | < 5.30 | 0.335 | 6.63 | 0.97 | < 4.80 | 0.311 | 7.69 | 0.578 | 7.70
8 | CA46 (Burkitt lymphoma, suspension) | 0.91 | < 4.99 | 0.909 | < 5.29 | 0.818 | 4.91 | 0.955 | < 4.30 | 0.913 | < 4.19 | 0.967 | < 5.30 | 0.653 | 5.75 | 0.984 | < 4.80 | 0.211 | 8.08 | 0.907 | < 6.70
9 | CAKI-1 (kidney, adherent) | 0.977 | < 4.99 | 0.957 | < 5.29 | 0.893 | < 4.70 | 0.469 | 5.61 | 0.329 | 5.98 | 0.915 | < 5.30 | 0.971 | < 4.99 | 0.977 | < 4.80 | 0.59 | 6.90 | 0.586 | –
10 | CAL-29 (bladder, adherent) | 0.981 | < 4.99 | 0.985 | < 5.29 | 0.924 | < 4.70 | 0.215 | 6.37 | 0.743 | 4.67 | 0.953 | < 5.30 | 0.978 | < 4.99 | 0.979 | < 4.80 | 0.501 | 7.19 | 0.331 | 8.39
11 | CAL-39 (cervix, adherent) | 0.959 | < 4.99 | 0.98 | < 5.29 | 0.916 | < 4.70 | 0.547 | 5.37 | 0.03 | > 6.60 | 0.98 | < 5.30 | 0.973 | < 4.99 | 0.976 | < 4.80 | 0.309 | 7.74 | 0.512 | 7.87
12 | CAL-72 (osteosarcoma, adherent) | 0.98 | < 4.99 | 0.984 | < 5.29 | 0.984 | < 4.70 | 0.657 | 5.03 | 0.94 | < 4.19 | 0.939 | < 5.30 | 0.984 | < 4.99 | 0.959 | < 4.80 | 0.694 | 6.60 | 0.639 | 7.49
13 | CCF-STTG1 (glioma, adherent) | 0.965 | < 4.99 | 0.988 | < 5.29 | 0.825 | 4.92 | 0.48 | 5.56 | 0.534 | 5.31 | 0.987 | < 5.30 | 0.988 | < 4.99 | 0.938 | < 4.80 | 0.617 | 6.87 | 0.842 | 6.85
14 | CESS (acute myeloid leukaemia, suspension) | 0.813 | 5.34 | 0.971 | < 5.29 | 0.681 | 5.43 | 0.441 | 5.66 | 0.025 | > 6.60 | 0.987 | < 5.30 | 0.711 | 5.64 | 0.99 | < 4.80 | 0.298 | 7.72 | 0.987 | < 6.70
15 | CHL-1 (melanoma, adherent) | 0.961 | < 4.99 | 0.979 | < 5.29 | 0.938 | < 4.70 | 0.641 | 5.13 | 0.236 | 6.14 | 0.981 | < 5.30 | 0.932 | < 4.99 | 0.961 | < 4.80 | 0.246 | 7.90 | 0.317 | 8.40
16 | COLO-205 (large intestine, suspension) | 0.957 | < 4.99 | 0.988 | < 5.29 | 0.901 | < 4.70 | 0.934 | < 4.30 | 0.349 | 5.82 | 0.983 | < 5.30 | 0.724 | 5.56 | 0.983 | < 4.80 | 0.272 | 7.84 | 0.976 | < 6.70
17 | COLO-320-HSR (large intestine, suspension) | 0.956 | < 4.99 | 0.978 | < 5.29 | 0.929 | < 4.70 | 0.667 | 5.07 | 0.484 | 5.44 | 0.987 | < 5.30 | 0.958 | < 4.99 | 0.979 | < 4.80 | 0.435 | 7.36 | 0.806 | 7.07
18 | COLO-678 (large intestine, semi-adherent) | 0.985 | < 4.99 | 0.985 | < 5.29 | 0.984 | < 4.70 | 0.682 | 4.93 | 0.77 | 4.50 | 0.982 | < 5.30 | 0.981 | < 4.99 | 0.934 | < 4.80 | 0.804 | 6.16 | 0.693 | 7.29
19 | COLO-679 (melanoma, adherent) | 0.978 | < 4.99 | 0.984 | < 5.29 | 0.954 | < 4.70 | 0.65 | 5.06 | 0.416 | 5.64 | 0.975 | < 5.30 | 0.935 | < 4.99 | 0.985 | < 4.80 | 0.181 | 8.22 | 0.537 | 7.80
20 | COLO-680N (oesophagus, adherent) | 0.986 | < 4.99 | 0.986 | < 5.29 | 0.922 | < 4.70 | 0.922 | < 4.30 | 0.56 | 5.22 | 0.985 | < 5.30 | 0.978 | < 4.99 | 0.975 | < 4.80 | 0.365 | 7.60 | 0.943 | < 6.70
21 | COLO-824 (breast, adherent) | 0.929 | < 4.99 | 0.983 | < 5.29 | 0.903 | < 4.70 | 0.832 | 4.49 | 0.836 | 4.36 | 0.982 | < 5.30 | 0.881 | < 4.99 | 0.987 | < 4.80 | 0.588 | 6.95 | 0.731 | 7.24
22 | COR-L88 (small cell lung carcinoma, adherent) | 0.986 | < 4.99 | 0.986 | < 5.29 | 0.896 | < 4.70 | 0.952 | < 4.30 | 0.811 | 4.37 | 0.975 | < 5.30 | 0.889 | < 4.99 | 0.982 | < 4.80 | 0.381 | 7.55 | 0.983 | < 6.70
23 | COR-L279 (small cell lung carcinoma, suspension) | 0.955 | < 4.99 | 0.991 | < 5.29 | 0.798 | 5.08 | 0.722 | 4.91 | 0.771 | 4.66 | 0.986 | < 5.30 | 0.658 | 5.78 | 0.991 | < 4.80 | 0.478 | 7.25 | 0.975 | < 6.70
